Measured values as given in paper PMC4336329 (PLoS ONE, 2015).
About 2,200 (0.71%) of roughly 310,000 compounds showed an effect of 50% or more. The effect is printed as a negative number. The list shows a part of the results.

These compounds were tested against human ether-à-go-go-related gene (hERG) potassium channel (human, UniProt Q12809) (assay: primary screen, population patch clamp on CHO cells stably expressing hERG).
Sequence of human ether-à-go-go-related gene (hERG) potassium channel (Q12809 whole entry, looked up): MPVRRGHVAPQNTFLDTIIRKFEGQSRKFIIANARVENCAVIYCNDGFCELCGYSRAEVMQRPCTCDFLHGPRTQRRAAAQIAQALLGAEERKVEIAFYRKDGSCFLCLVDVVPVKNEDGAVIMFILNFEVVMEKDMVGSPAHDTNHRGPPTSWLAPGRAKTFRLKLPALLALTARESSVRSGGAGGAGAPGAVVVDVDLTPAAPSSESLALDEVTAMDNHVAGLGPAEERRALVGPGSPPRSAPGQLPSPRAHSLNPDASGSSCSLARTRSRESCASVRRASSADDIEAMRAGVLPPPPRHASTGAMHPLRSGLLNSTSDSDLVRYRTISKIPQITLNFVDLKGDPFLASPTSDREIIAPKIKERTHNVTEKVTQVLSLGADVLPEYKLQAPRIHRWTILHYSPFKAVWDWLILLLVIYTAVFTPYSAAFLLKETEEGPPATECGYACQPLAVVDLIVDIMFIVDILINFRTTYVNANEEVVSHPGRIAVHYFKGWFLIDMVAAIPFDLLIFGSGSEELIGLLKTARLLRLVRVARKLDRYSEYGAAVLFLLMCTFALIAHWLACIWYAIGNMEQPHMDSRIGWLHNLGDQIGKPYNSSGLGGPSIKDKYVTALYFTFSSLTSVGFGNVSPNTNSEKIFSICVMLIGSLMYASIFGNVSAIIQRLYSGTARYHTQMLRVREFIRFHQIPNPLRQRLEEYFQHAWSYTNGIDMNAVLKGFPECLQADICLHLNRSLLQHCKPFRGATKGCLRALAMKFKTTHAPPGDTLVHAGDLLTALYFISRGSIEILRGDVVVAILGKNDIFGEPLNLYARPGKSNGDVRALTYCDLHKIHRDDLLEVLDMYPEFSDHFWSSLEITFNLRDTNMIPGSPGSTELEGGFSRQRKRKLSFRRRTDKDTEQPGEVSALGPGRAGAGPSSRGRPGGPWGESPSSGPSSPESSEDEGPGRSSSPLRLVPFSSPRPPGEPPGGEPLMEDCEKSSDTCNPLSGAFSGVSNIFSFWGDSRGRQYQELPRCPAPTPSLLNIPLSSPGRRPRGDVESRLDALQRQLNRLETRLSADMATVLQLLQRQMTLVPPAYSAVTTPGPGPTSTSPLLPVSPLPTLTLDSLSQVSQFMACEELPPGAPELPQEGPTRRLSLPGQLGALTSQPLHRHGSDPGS

Row | Structure (SMILES) | hERG current change (%, negative = inhibition) at 1uM [%]
1 | CCOCCCn1c(N)c(C(=O)Nc2sc3c(c2C(=O)OC)CCCC3)c2nc3ccccc3nc21 | 10.8
2 | Cc1c(C)c2c(OCC(=O)NC3CC3)cc3c(c2oc1=O)CCC(C)(C)O3 | 11.7
3 | CCOCCCNC(=O)Cn1cc2c(n1)CCCCC2 | 6.86
4 | Cc1cc(C)n(-c2nc3c(c(=O)n(C)c(=O)n3C)n2CCO)n1 | 13.1
5 | Cc1ccc(C(=O)O)cc1N1CCCC1=O | 32.6
6 | Cc1cc(OCc2nn[nH]n2)c2c(C)c(Cc3ccccc3)c(=O)oc2c1 | 2.66
7 | CCC(C)Oc1cc(-c2ccnc(Nc3cccc(Cl)c3)n2)ccn1 (centres unmarked) | -3.86
8 | O=C(c1ccc(CSc2ccccc2)cc1)N1CCN(c2ccccc2)CC1 | -7.78
9 | O=C1CSC(c2cccnc2)N1c1ccccc1 (centres unmarked) | 8.11
10 | COC(C(=O)Nc1ccnn1C1CCN(C(=O)c2ccc(C=O)cc2)CC1)c1ccccc1 (centres unmarked) | -5.16
11 | O=C(O)c1cc(N/N=C/C=C/c2ccccc2[N+](=O)[O-])ccc1Cl | 10.7
12 | Cc1cccc(C(=O)N/N=C/c2coc3ccccc3c2=O)c1 | -0.626
13 | CCOc1ccc(NC(=O)NCCN2C(C)CCCC2C)cc1 (centres unmarked) | -8.72
14 | COC(=O)c1ccc(S(=O)(=O)N2CCCN(Cc3ccccc3)CC2)n1C | 5.75
15 | CCOc1ccc(Cn2nnc(C(=O)NCCc3ccc(Cl)cc3)c2N)cc1 | 16.1
16 | CC1Oc2ccccc2N(CC(=O)NC2CC2)C1=O (centres unmarked) | 6.4
17 | CCc1nc2n[nH]c(N)c2c2c1CSC(C)(C)C2 | -0.598
18 | CC(=O)N1CCC[C@H]1C(=O)O | 8.95
19 | COc1ccc(N2CCN(CCC(O)c3ccc4ccccc4c3)CC2)cc1 (centres unmarked) | -45.7
20 | CCc1ccccc1NC(=O)CN1CCN(C(=O)CNC(=O)Cc2cccc3ccccc23)CC1 | 3.64
21 | Nc1nnc(/C=C/c2cccc([N+](=O)[O-])c2)s1 | 10.5
22 | COc1cccc(NC(=O)c2cc(-c3ccc(OC)cc3OC)nc3ccccc23)c1 | 13.8
23 | CN(C)NC(=S)NC(=O)C12CC3CC(CC(C3)C1)C2 | 9.67

Row | Structure (SMILES) | hERG current change (%, negative = inhibition) at 1uM [%]
24 | NS(=O)(=O)c1ccc(NC(=O)C2CCCO2)cc1 (centres unmarked) | 12.4
25 | CC(=O)c1ccc(C(=O)N2CCC(n3nccc3NC(=O)C3CC3)CC2)cc1 | 0.412
26 | CC(=O)Nc1ccc(C2=NN(CC#N)C(=O)SC2)cc1 | 13.6
27 | O=C(NCCc1ccc(Cl)cc1)c1cccc(NC2=NC3CS(=O)(=O)CC3S2)c1 (centres unmarked) | 13
28 | COc1ccc(OC)c(S(=O)(=O)N/N=C\c2ccc3c(c2)OCO3)c1 | 14.5
29 | CCN1CCN(c2oc(-c3ccco3)nc2C#N)CC1 | 9.51
30 | O=C(Cn1nnc(-c2ccncc2)n1)NCCc1ccccc1 | 9.71
31 | O=C(NCCN1CCOCC1)C1CCN(c2nc3ccccc3o2)CC1 | -7.82
32 | C=CCOn1c(-n2nc(C)cc2C)nc2ccccc2c1=O | 8.36
33 | CCOC(=O)C(Sc1cc(-c2ccccc2)nc2ncnn12)C(C)=O (centres unmarked) | 15.5
34 | CN(C)/C=C(\C=O)c1ncc(C(F)(F)F)cc1Cl | 13.4
35 | CC(C)n1cnc2cc(NCc3ccco3)ccc21.Cl | 7.77
36 | C=CCn1cc(F)c(=O)n(CC=C)c1=O | 10.5
37 | CC1=CC(C)(C)Nc2ccccc21 | 9.39
38 | COCCNC(=O)CN(C(=O)CCC(=O)Nc1cc(C)on1)c1cccc(C)c1C | 10.5
39 | CC(OC(=O)c1cccc(-n2cnnn2)c1)C(=O)Nc1cccc(Cl)c1 (centres unmarked) | 6.34
40 | Cc1ccc2c(COC(=O)CNC(=O)c3ccccc3)cc(=O)oc2c1 | -19.5
41 | O=c1oc2cc(Cl)ccc2n1CSc1nc2ccccc2s1 | 11.9
42 | O=C(CN(C(=O)C1CSC(=O)C1)c1cccc(F)c1)NCc1ccc2c(c1)OCO2 (centres unmarked) | 7.68
43 | CC(C)CCNC(=O)C(c1ccco1)N(Cc1ccccc1)C(=O)c1snc(C(N)=O)c1N (centres unmarked) | -1
44 | O=C(/C=C/c1ccccc1)NCCc1c[nH]c2ccccc12 | 9.97
45 | COc1ccc(C(=O)CC2(CC(=O)c3ccc(OC)cc3)C(=O)N(C)C(=O)N(C)C2=O)cc1 | 2.38
46 | Nc1ccc(C(=O)N/N=C/c2sc(N3CCOCC3)nc2-c2ccccc2)cc1 | 0.432

Row | Structure (SMILES) | hERG current change (%, negative = inhibition) at 1uM [%]
47 | COC(=O)CCC(=O)OC1(C)C(=O)C=C2C=C(C3CC3)N(C(CO)CO)C=C2C1=O (centres unmarked) | 9.43
48 | COc1cc(Nc2ccc(C)cc2)c([N+](=O)[O-])nc1[N+](=O)[O-] | 8.96
49 | S=C(Nc1ccc(Cl)cc1)c1nc2ccccc2[nH]1 | 13.7
50 | CCOC(=O)Cc1csc(NC(=O)CSc2nnc(Cc3csc(N)n3)n2C)n1 | 10.1
51 | CCCn1c(SCC(=O)c2[nH]c(C)c(C(C)=O)c2C)n[nH]c1=O | 11.1
52 | CC(C)c1ccc(S(=O)(=O)N2CCN(C(=O)C3CCCCC3)CC2)cc1 | 8.18
53 | COC(=O)C1=C(c2ccc(F)cc2OCc2ccccc2)C[C@@H]2CC[C@H]1N2C(=O)NCCOc1ccccc1 | 22.4
54 | Cc1cc(O)c(C(=O)/C=C/c2ccccc2O)c(=O)o1 | 8.29
55 | O=C(CCNC(=O)C1CCN(S(=O)(=O)c2ccccc2)CC1)NCc1cccc(Cl)c1 | -4.2
56 | O=C(CN1CCN(S(=O)(=O)/C=C/c2ccccc2)CC1)Nc1ccc(N2CCOCC2)cc1 | 20.6
57 | Cc1ccc(-c2cc(N)on2)cc1 | 11.7
58 | CCN(c1ccccc1)S(=O)(=O)c1ccc(N)cc1 | 4.68
59 | CC(=O)N1c2ccc(S(=O)(=O)N3CCC(C(=O)Nc4cccc(C(F)(F)F)c4)CC3)cc2CC1C (centres unmarked) | 12.2
60 | CCOC(=O)c1c(NC(=O)CSc2nc(C)cc(C)c2C#N)sc(C(C)=O)c1C | 10.1
61 | CCOC(=O)N1CCC(NC(=O)CCS(=O)(=O)c2ccc3c(c2)CCN3C(=O)CC)CC1 | 7.21
62 | COc1ccc(C(=O)NCCNc2nc3cc(C)c(C)cc3cc2C)cc1 | 0.766
63 | Cc1cc(NC(=O)CCC(=O)N(c2ccccc2)C(C(=O)NC(C)(C)C)c2ccccc2Cl)no1 (centres unmarked) | 13.7
64 | COc1ccc(S(=O)(=O)CCC(=O)NCCc2ccc(C)cc2)cc1 | 3.09
65 | O=C(Nc1ccc(Br)cc1)C1CCCC1 | 9.58
66 | CCCCn1c(O)c(C(C)=NCC2CCCO2)c(=O)[nH]c1=O (centres unmarked) | -5.11
67 | OCCN1CCN(c2ncnc3scc(-c4ccc(F)cc4)c23)CC1 | -0.973
68 | CC1CCN(C(=O)c2ccc(S(=O)(=O)Cc3cc(F)ccc3F)c([N+](=O)[O-])c2)CC1 | 2.83
69 | CC1CC(C)CN(CC(C)(C)NS(=O)(=O)c2ccc(Cl)cc2)C1 (centres unmarked) | 4.49

Row | Structure (SMILES) | hERG current change (%, negative = inhibition) at 1uM [%]
70 | CCCc1c(C)c2c(C)[nH]nc2oc1=O | 2.18
71 | c1cc(C(c2nnnn2C2CCCCC2)N2CCN3CCCC3C2)ccn1 (centres unmarked) | 7.76
72 | CC(Oc1cc2oc(=O)c3c(c2cc1Cl)CCCC3)C(=O)NCc1ccccn1 (centres unmarked) | 4.18
73 | Cc1ccc(OCC(=O)Nc2ccc(S(=O)(=O)N3CCOCC3)cc2)c(Br)c1 | 9.65
74 | COc1ccc(C(=O)C[n+]2ccc(-c3nnc4n3CCC4)cc2)cc1.[Br-] | 13.3
75 | O=C(N/N=C/c1cccc(OC(=O)c2cccc(Br)c2)c1)c1cccnc1 | 7.28
76 | Cc1ccc(N(C(C)C(=O)O)S(=O)(=O)c2c(C)n[nH]c2C)cc1 (centres unmarked) | 16.6
77 | CN1CCC(=O)N([C@H](CSc2ccc(Br)cc2)c2ccccc2)CC1 | -89.8
78 | CN(Cc1cccnc1)C(=O)CNC(=O)c1ccc(Cl)cc1Cl | 3.55
79 | CCCOc1ccccc1C(=O)N(Cc1ccc(C)o1)C1CCS(=O)(=O)C1 (centres unmarked) | -4.38
80 | COCCN(C(=O)COC(=O)CSc1ccc(Cl)cc1)c1c(N)n(Cc2ccccc2)c(=O)[nH]c1=O | 9.23
81 | COc1ccc(NC(=O)c2c(F)c(F)c(F)c(F)c2F)cc1Cl | 6
82 | Cc1ccc(OCC(=O)N2CCN(Cc3ccc4c(c3)OCO4)CC2)cc1.O=C(O)C(=O)O | 3.35
83 | O=C(OCc1nnc(-c2ccccc2)o1)c1ccc([N+](=O)[O-])s1 | 11.9
84 | C#CCN(CC=C)C(=O)CCc1nnc(COc2ccccc2)o1 | 14.3
85 | CN1CCN(P(=O)(c2ccccc2)c2nc3ccccc3s2)CC1 (centres unmarked) | 4.85
86 | CC(=O)Oc1cc2oc(=O)cc(C)c2cc1Cl | 12.7
87 | Cc1nn(Cc2noc(C(=O)NCC3CCCO3)n2)c(C)c1Br (centres unmarked) | 11.5
88 | CCCCn1nnc(NC(=O)c2ccc(-c3cccc([N+](=O)[O-])c3)o2)n1 | -27
89 | COc1cc2c(cc1OC)C(c1cccc(Cl)c1Cl)CC(=O)N2 (centres unmarked) | 12
